Assay results reported in the supplement of paper PMC9446081.
About 220 (0.56%) of roughly 39,000 compounds showed activity. Some of the results follow.

tested on: Escherichia coli K-12 BW25113; experiment: relative growth (OD600 normalised to plate interquartile mean) (fraction); higher = less growth inhibition, active = 0.2 or less; settings: 50 µM; LB; incubation time: overnight (16-24 h)
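Also: static incubation at 37 °C against the wild-type strain, values averaged over two biological replicates.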

Row | SMILES | relative growth
1 | CN(C)C(=O)c1cccc(-c2cccc(-c3nc(C(=O)NCc4ccccc4)cc4c3[C@H](CCO)N([S@@](=O)C(C)(C)C)C4)c2)c1 | inactive: 1.01
2 | C[C@@H]1CCCCO[C@@H](CN(C)S(=O)(=O)c2ccc(Cl)cc2)[C@H](C)CN([C@H](C)CO)C(=O)c2cc(NS(=O)(=O)c3ccccc3)ccc2O1 | inactive: 0.991
3 | C[C@@H]1ON(c2ccc(C(=O)OC(C)(C)C)cc2)[C@H](c2ccc(Br)cc2)[C@H]1C(=O)N1C(=O)OC[C@H]1Cc1ccccc1 | inactive: 0.971
4 | C[C@@H]1CCCCO[C@H](CN(C)CC2CCCCC2)[C@@H](C)CN([C@H](C)CO)C(=O)c2cc(NC(=O)CCCCCC(=O)Nc3ccccc3N)ccc2O1 | inactive: 0.968
5 | CN1CCOC(c2ccccc2)c2ccccc2C1 (configuration not stated) | inactive: 0.972
6 | COCCN(C)C(=O)c1ccc2nnc([C@H]3CN(S(C)(=O)=O)CCN3C)n2c1 | inactive: 1.01
7 | C[C@H](CO)N1C[C@H](C)[C@@H](CN(C)Cc2ccc(-c3ccccc3)cc2)Oc2ccc(NS(=O)(=O)c3ccc(F)cc3)cc2CC1=O | inactive: 0.985
8 | Cc1noc(C)c1S(=O)(=O)Nc1cccc2c1O[C@H](CN(C)S(C)(=O)=O)[C@H](C)CN([C@H](C)CO)C2=O | inactive: 0.978
9 | C[C@@H]1CN([C@@H](C)CO)C(=O)c2cc(C#Cc3ccccc3F)cnc2O[C@@H]1CN(C)S(=O)(=O)c1ccccc1 | inactive: 1.01
10 | NC1(C(=O)O)CC(C(=O)O)C1 (configuration not stated) | inactive: 0.99
11 | CNCCC(Oc1ccccc1C)c1ccccc1.Cl (configuration not stated) | inactive: 1.04
12 | O=C(C[C@H]1CC[C@H]2[C@@H](COC[C@@H](O)CN2S(=O)(=O)c2cccc(F)c2)O1)NCc1ccc2c(c1)OCO2 | inactive: 1.01
13 | Cc1ccc(-c2cnc3c(c2)C(=O)N([C@@H](C)CO)C[C@H](C)[C@@H](CN(C)C(=O)Cc2cccnc2)O3)cc1 | inactive: 0.988
14 | C[C@@H]1CN([C@@H](C)CO)C(=O)c2cccc(NS(=O)(=O)c3cccs3)c2O[C@@H]1CN(C)CC1CC1 | inactive: 0.982
15 | OC[C@@H](O)[C@H]1O[C@H](c2ccccc2)OC[C@@H]1O | inactive: 1.05
16 | CC(=O)O[C@H]1[C@@H](OC(C)=O)C(C)(C)/C=C/[C@@](C)(O)C(=O)[C@]2(O)[C@H]([C@@H](OC(C)=O)[C@](C)(OC(C)=O)[C@H]2OC(C)=O)[C@H]2OC(=O)CC[C@@]2(OC(C)=O)[C@@H]1OC(=O)C(C)C | inactive: 0.992
17 | O=C(C[C@@H]1CC[C@@H]2[C@H](COC[C@@H](O)CN2C(=O)c2cccnc2)O1)NCc1ccc(-c2ccccc2)cc1 | inactive: 0.997
18 | COc1ccc(S(=O)(=O)N(C)C[C@H]2Oc3ncc(C#CC4(O)CCCC4)cc3C(=O)N([C@@H](C)CO)C[C@H]2C)cc1 | inactive: 1
19 | C[C@H](CO)N1C[C@H](C)[C@H](CN(C)Cc2ccc(Cl)c(Cl)c2)Oc2ccc(NC(=O)CCCCCC(=O)Nc3ccccc3N)cc2C1=O | inactive: 0.986

Row | SMILES | relative growth
20 | C[C@H]1CCCCO[C@H](CN(C)C(=O)Nc2ccc(F)cc2)[C@@H](C)CN([C@@H](C)CO)C(=O)c2cc(NC(=O)Nc3ccc4c(c3)OCO4)ccc2O1 | inactive: 1
21 | COc1ccc(CN(C)C[C@@H]2Oc3ccc(NC(=O)Cn4cnnn4)cc3CC(=O)N([C@@H](C)CO)C[C@H]2C)cc1 | inactive: 1
22 | C[C@H](CO)N1C[C@H](C)[C@@H](CN(C)CC2CC2)Oc2ccc(NS(=O)(=O)c3cn(C)cn3)cc2C1=O | inactive: 0.969
23 | COc1ccc(NC(=O)N(C)C[C@H]2Oc3c(NC(=O)Nc4ccc(C(F)(F)F)cc4)cccc3C(=O)N([C@H](C)CO)C[C@@H]2C)cc1 | inactive: 0.84
24 | Cc1noc(C)c1NC(=O)Nc1ccc2c(c1)C(=O)N([C@H](C)CO)C[C@@H](C)[C@H](CN(C)Cc1ccc(C(=O)O)cc1)OCCCC[C@H](C)O2 | inactive: 0.994
25 | C[C@@H]1CN([C@@H](C)CO)C(=O)c2cc(NC(=O)CCCN(C)C)ccc2O[C@@H](C)CCCCO[C@@H]1CN(C)Cc1ccc(C(F)(F)F)cc1 | inactive: 0.961
26 | COCCNC(=O)C[C@H]1CC[C@H]2[C@@H](COC[C@@H](O)CN2C(=O)Nc2ccccc2OC)O1 | inactive: 0.949
27 | CCS(=O)(=O)Nc1ccc2c(c1)C(=O)N(C)C[C@H](OC)[C@H](C)CN(Cc1nccs1)[C@@H](C)CO2 | inactive: 1
28 | O=C1[C@@H]2[C@H](O)CS[C@@H]2C(=O)N1c1ccccc1 | inactive: 1.01
29 | C[C@@H]1CN([C@H](C)CO)C(=O)c2cccc(NC(=O)c3cnccn3)c2O[C@H]1CN(C)C(=O)NC1CCCCC1 | inactive: 0.913
30 | C[C@@H]1CCCCO[C@@H](CN(C)C(=O)Nc2ccc(C(F)(F)F)cc2)[C@H](C)CN([C@@H](C)CO)C(=O)c2cc(NC(=O)C3CCCCC3)ccc2O1 | inactive: 1.01
31 | CN1C(=O)c2cc(NC(=O)c3ccc(C(F)(F)F)cc3)ccc2OC[C@@H]2O[C@@H](CC(=O)NC3Cc4ccccc4C3)CC[C@H]21 | inactive: 1.03
32 | C[C@H]1CCCCO[C@@H](CN(C)Cc2ccc(C(=O)O)cc2)[C@@H](C)CN([C@@H](C)CO)C(=O)c2cc(NS(=O)(=O)c3ccc(Cl)cc3)ccc2O1 | inactive: 1
33 | Cc1ccc(S(=O)(=O)Nc2ccc3c(c2)CC(=O)N([C@@H](C)CO)C[C@H](C)[C@@H](CN(C)CC2CC2)O3)cc1 | inactive: 1.01
34 | C[C@@H]1CCCCO[C@H](CN(C)C(=O)CCC(F)(F)F)[C@@H](C)CN([C@H](C)CO)C(=O)c2cc(NS(=O)(=O)c3ccc(Cl)cc3)ccc2O1 | inactive: 1.01
35 | C[C@@H]1CN([C@@H](C)CO)C(=O)Cc2cc(NC(=O)CCCCCC(=O)Nc3ccccc3N)ccc2O[C@@H]1CN(C)Cc1ccccc1 | inactive: 0.976
36 | C[C@@H]1CCCCO[C@H](CN(C)C(=O)Nc2ccc(F)cc2)[C@H](C)CN([C@@H](C)CO)C(=O)c2cc(NC(=O)CCCN(C)C)ccc2O1 | inactive: 0.974
37 | CN1C(=O)c2cc(NC(=O)c3cccs3)ccc2OC[C@H]2O[C@@H](CC(=O)NCC(F)(F)F)CC[C@H]21 | inactive: 0.861
38 | COc1cccc(-c2cn(CC[C@H]3CC[C@@H](NC(=O)CN(C)C)[C@H](CO)O3)nn2)c1 | inactive: 1.01

Row | SMILES | relative growth
39 | C[C@H]1CCCCO[C@H](CN(C)C(=O)Cc2ccccc2)[C@@H](C)CN([C@@H](C)CO)C(=O)c2cc(NS(=O)(=O)c3cccs3)ccc2O1 | inactive: 1.01
40 | COc1ccc(CN(C)C[C@H]2OCCCC[C@H](C)Oc3ccc(NC(=O)Cc4ccccc4)cc3C(=O)N([C@H](C)CO)C[C@H]2C)cc1 | inactive: 0.974
41 | CC(C)NC(=O)N(C)C[C@@H]1Oc2c(NS(=O)(=O)c3cn(C)cn3)cccc2C(=O)N([C@@H](C)CO)C[C@H]1C | inactive: 1.02
42 | COc1ccc(S(=O)(=O)N(C)C[C@H]2Oc3cc(C#CC4CCCC4)ccc3S(=O)(=O)N([C@H](C)CO)C[C@@H]2C)cc1 | inactive: 1.02
43 | COC(=O)CC1C(C)(C)C(=O)C2CC3=C(CCC4(C)C3=CC(=O)OC4c3ccoc3)C1(C)C2=O (configuration not stated) | inactive: 1.02
44 | O=C1O[C@@H](c2ccccc2)[C@@H](c2ccccc2)N2[C@@H](c3ccc(O)cc3)[C@]3(C(=O)Nc4ccc(C#CC5(O)CCCCCC5)cc43)[C@@H](C(=O)NC[C@H](O)c3ccccc3)[C@H]12 | inactive: 1
45 | O=C(C[C@@H]1CC[C@H]2[C@@H](COC[C@@H](O)CN2C(=O)c2cnccn2)O1)NCc1ccc(Oc2ccccc2)cc1 | inactive: 0.983
46 | COc1cccc(S(=O)(=O)Nc2ccc3c(c2)[C@@H]2C[C@H](CC(=O)NCc4ccccc4F)O[C@@H](CO)[C@@H]2O3)c1 | inactive: 0.978
47 | Cc1ccc2n[nH]c(C(=O)N3CCN4C(=O)CNC(=O)[C@@H]4C3)c2c1 | inactive: 1
48 | C[C@H]1CCCCO[C@H](CN(C)CC2CCCCC2)[C@@H](C)CN([C@@H](C)CO)C(=O)c2cc(NC(=O)C3CCCCC3)ccc2O1 | inactive: 0.973
49 | Cc1ccc(S(=O)(=O)N(C)C[C@H]2OCCCC[C@H](C)Oc3ccc(NC(=O)C4CCCCC4)cc3C(=O)N([C@H](C)CO)C[C@H]2C)cc1 | inactive: 1.03
50 | C[C@H]1CN([C@@H](C)CO)C(=O)c2cc(Br)cnc2O[C@H]1CN(C)Cc1ccc2c(c1)OCO2 | inactive: 0.983
51 | C[C@@H]1CCCCO[C@H](CN(C)Cc2ccc(C(F)(F)F)cc2)[C@@H](C)CN([C@H](C)CO)C(=O)c2cc(NC(=O)Nc3ccc(C(F)(F)F)cc3)ccc2O1 | inactive: 0.984
52 | C[C@H]1CN([C@@H](C)CO)C(=O)Cc2cc(NC(=O)Cc3cn(C)c4ccccc34)ccc2O[C@H]1CN(C)C | inactive: 1
53 | C[C@H](CO)N1C[C@H](C)[C@@H](CN(C)C(=O)Nc2ccc(C(F)(F)F)cc2)Oc2ccc(NC(=O)CCCCCC(=O)Nc3ccccc3N)cc2CC1=O | inactive: 0.99
54 | CO[C@@H](CN(C)S(=O)(=O)c1cn(C)cn1)[C@H](C)CN(C(=O)Nc1ccc(C(F)(F)F)cc1)[C@@H](C)CO | inactive: 0.909
55 | C[C@@H]1CN([C@@H](C)CO)C(=O)c2cc(NC(=O)c3ccccc3)ccc2O[C@@H](C)CCCCO[C@H]1CN(C)C(=O)Cc1ccccc1 | inactive: 1.01
56 | C[C@H](CO)N1C[C@H](C)[C@@H](CN(C)Cc2ccc(Oc3ccccc3)cc2)Oc2ccc(NC(=O)Nc3cccc4ccccc34)cc2CC1=O | inactive: 1.04
57 | COc1ccc(NC(=O)Nc2ccc3c(c2)C(=O)N([C@@H](C)CO)C[C@@H](C)[C@@H](CN(C)Cc2ccncc2)OCCCC[C@@H](C)O3)cc1 | inactive: 0.983
